In PubChem BioAssay AID1347073 (National Center for Advancing Translational Sciences (NCATS), 2019):
Screen size: about 45,000 compounds; about 200 (0.44%) were called active. Not shown: some 7% with an inconclusive outcome. The call rests on the fitted dose curve; in most records, active means well fitted activation curve with a large enough effect; inconclusive means small, poorly fitted or top-dose-only effect; inactive means no such curve, though single readings can be large or run the other way. Some of the results follow.

Test: qHTS of TDP-43 Inhibitors: NCGC Sytravon Library Screen; further: nearly all actives have a fitted effect of over 55% in size; on growth rescue (activation): 0% is about no effect
Conditions: yeast TDP-43 toxicity rescue, BacTiter-Glo growth, 24 h; series mostly up to 46.1 µM; growth rescue (activation): at the top concentration
In short: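 TDP-43-expressing yeast, pregrown in raffinose, seeded at OD600 0.02 in galactose medium with compound for 24 hr at 30 deg C. Growth read by BacTiter-Glo luminescence, so rescue of toxicity appears as activation.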
Potency means the concentration at half of the fitted maximal effect.

SMILES	growth rescue (activation)	Potency
COc1ccc(OC2CCN(S(=O)(=O)c3ccc(F)cc3)CC2)cc1	inactive: 15.7%	–
CC1(C)CC(NC(=O)CSc2ccccc2)CC(C)(C)N1	inactive: 2.96%	–
O=C1c2ccccc2NC(c2ccccn2)N1NS(=O)(=O)c1ccccc1 (stereo not drawn)	inactive: -21.1%	–
COCCn1c(SCC(=O)c2c(-c3ccccc3)n(C)c3ccccc23)nnc1-c1ccncc1	inactive: -18.5%	–
Cn1cccc1CC(=O)NNC(=S)Nc1ccccc1Cl	inactive: 14.3%	–
Cc1cc(S(=O)(=O)N2CCCC2)ccc1OCC(=O)NCc1ccccn1	inactive: 11.8%	–
COc1cccc(/C=N/Nc2cc(Cl)nc(C)n2)c1O	inactive: 7.31%	–
CC(=O)N1CCN(Cc2nc3cc(NC(=O)COc4cccc(C)c4)ccc3n2C)CC1	inactive: 6.62%	–
CCN(CC)C(=O)c1cn(CCC#N)nc1-c1ccc2c(c1)OCCO2	inactive: -0.13%	–
COc1ccccc1Nc1nc(-c2ccccc2O)nc2ccccc12	inactive: -5.46%	–
COc1ccc(NC(=O)c2ccc(NC(=O)CCS(=O)(=O)c3cccs3)cc2)cc1	inactive: 16.6%	–
CC(=O)c1ccc(N=Nc2ccc(C)cc2)cc1	inactive: 19.8%	–
COc1ccc2nc(NC(=O)c3cc(S(=O)(=O)N4CCOCC4)ccc3C)sc2c1	inactive: 1.4%	–
Cc1cc(S(=O)(=O)NCc2ccccc2)ccc1OCC(=O)NCC1CCCO1 (stereo not drawn)	inactive: 8.15%	–
COC(=O)CSc1nc2ccccn2c(=O)c1C=O	inactive: -4.66%	–
NS(=O)(=O)c1ccc(CCNC(=O)CCCn2c(=O)[nH]c3ccc(Br)cc3c2=O)cc1	inactive: 4.72%	–
CS(=O)(=O)N(CCC#N)Cc1ccc(C=O)o1	inactive: 12.1%	–
COC(=O)CCNC(=O)c1ccc2[nH]c(C)c(C)c2c1	inactive: -8.44%	–
CN(C)C(CNC(=S)Nc1ccc(F)cc1)c1cccnc1 (stereo not drawn)	inactive: -5.64%	–
Cc1ccc(-n2nc(C(=O)O)c(O)cc2=O)cc1	inactive: -3.86%	–
Cc1ccc(NS(=O)(=O)c2ccccc2[N+](=O)[O-])cc1S(=O)(=O)N1CCCCC1	inactive: 6.82%	–
Cc1[nH]c2ccccc2c1/C=C(/C#N)C(=O)NC(C)C	inactive: -10.3%	–
O=C(O)c1cc2nc(-c3cccs3)cc(C(F)(F)F)n2n1	inactive: -13.3%	–

SMILES	growth rescue (activation)	Potency
COc1ccc(/C=C(\C#N)C(=O)NCc2cccs2)cc1OC	inactive: -24.1%	–
CCc1cc[n+](/C(C(=S)Nc2cccc(C)c2)=C(/[O-])c2ccc(C)c([N+](=O)[O-])c2)cc1	inactive: 3.45%	–
CN1CCc2c(sc3nc(NN)n(Cc4ccccc4)c(=O)c23)C1	inactive: 0.162%	–
Cc1c(C(=O)Nc2ccccc2)sc2ncn(CC(=O)N3CCCCC3)c(=O)c12	inactive: 4.09%	–
Cc1nn(CCCC(=O)NCCc2ccccc2)c(C)c1[N+](=O)[O-]	inactive: 1.64%	–
COc1ccc(C(=O)Nc2ccc(N3CCCC3)cc2)cc1OC	inactive: 13.7%	–
COc1cc(/C=C2\SC(=O)N(CCNC(=O)c3cnc(C)cn3)C2=O)cc(OC)c1OC	inactive: 10.4%	–
COc1ccc(C(=O)NC(=S)NCc2cccnc2)cc1[N+](=O)[O-]	inactive: -11.6%	–
N=C1C(c2nc3ccccc3s2)=C(O)CN1NC(=O)c1c[nH]c2ccccc12	inactive: -3.38%	–
Cc1cc(F)ccc1C(O)c1ncc(-c2cccc(F)c2)[nH]1 (stereo not drawn)	inactive: 4.08%	–
C=CCN(c1ccccc1OC)S(=O)(=O)c1ccc(Cl)c(C(=O)Nc2ccc(N3CCOCC3)cc2)c1	inactive: 5.1%	–
Cc1ccc(Nc2nc3ccccc3n3nnnc23)cc1	inactive: -16%	–
CC(=O)C1=C(C)N2CCN=C2S1	inactive: -14.6%	–
Cc1ccc2nc(-c3ccc(NC(=O)c4cccnc4)cc3)oc2c1	inactive: 36.8%	–
CN1CCN(c2nc3ccccc3nc2NS(=O)(=O)c2ccc(Br)cc2)CC1	inactive: -7.57%	–
COC(=O)c1c(NC(=S)NN2CCOCC2)sc2c1CCCC2	inactive: 5.36%	–
COc1ccc(Cc2nnc(NCCO)[nH]c2=O)cc1OC	inactive: -5.98%	–
Cc1cccc(NC(=O)C2CCN(C(=O)NCc3ccccc3)CC2)c1C	inactive: -1.17%	–
O=C(Nc1cccc(C(F)(F)F)c1)Nc1ccc(N2CCCC2)c(S(=O)(=O)Nc2ccccc2Cl)c1	inactive: -8.18%	–
COc1ccc(Cl)cc1NC(=O)CSC1=NN2CCCC(=O)N=C2S1	–	active: 14.1 µM
C=CCN1C(=O)/C(=C\c2cccc(OC(=O)c3ccco3)c2)SC1=S	inactive: 1.45%	–
COc1ccc(NC(=O)CC2(CC(=O)O)CCCC2)cc1	inactive: 2.01%	–
CC(=O)c1cnc2c(-c3cccc(Br)c3)cnn2c1C	inactive: 19.9%	–

SMILES	growth rescue (activation)	Potency
O=C(CSc1nc2cc(Cl)ccc2s1)NCc1ccc2c(c1)OCO2	inactive: 13%	–
CN(C)c1ccc(-c2ccnc3c2CC(C)(C(=O)Nc2ccccc2)O3)cc1 (stereo not drawn)	inactive: 6.17%	–
CCN1C(=O)N(C(C)=O)C2C1N(C(C)=O)C(=O)N2C(C)=O (stereo not drawn)	inactive: -5.03%	–
O=C(Nc1ccc(OCc2ccccc2)cc1)Nc1nnc([C@@H]2C[C@H](O)[C@@H](CO)O2)s1	inactive: 8.08%	–
CCC(=O)NCCc1nc2cc(NC(=O)c3ccc(Cl)cc3)ccc2n1C	inactive: -33.1%	–
O=C(N/N=C/c1ccc(-c2cccc(C(F)(F)F)c2)o1)c1ccccc1O	inactive: 7.74%	–
CCSc1nnc(-c2cc(Br)ccc2NC(C)=O)c(=O)[nH]1	inactive: 10.6%	–
COc1ccc(/C=N/Nc2nnc(Cc3ccc(OC)c(OC)c3)c(=O)[nH]2)cc1	inactive: -9.41%	–
CCOC(=O)C1=C(C)NC(=S)NC1c1cccs1 (stereo not drawn)	inactive: 22.9%	–
Cc1csc(NC(=O)CN2C(=O)C3CC=CCC3C2=O)n1 (stereo not drawn)	inactive: 13.9%	–
O=C(CCCCn1c(=O)[nH]c2ccsc2c1=O)NCCc1ccccc1	inactive: 17.4%	–
O=C1/C(=C2/NCCN2C2CC(=O)N(c3ccccc3)C2=O)CC/C1=C\c1ccccc1 (stereo not drawn)	inactive: -5.53%	–
Cc1ccc(NCC(=O)Nc2ccc(Br)cc2)cc1F	inactive: 5.21%	–
Cn1ncc2c(NNC(=O)c3ccc(O)cc3)ncnc21	inactive: -10.9%	–
COc1ccc(Cl)cc1S(=O)(=O)N(C)CC(=O)N1CCOCC1	inactive: -19.9%	–
NC(=O)CN(c1ccc(Cl)cc1)S(=O)(=O)c1ccccc1	inactive: -5.89%	–
NC1=NC2(CCCCC2)N=C(Nc2ccc(Br)cc2)N1	inactive: -10.6%	–
COc1ccc(C2=NC(C)(C)N(CC(=O)Nc3ccc(F)c(F)c3)C2=O)cc1	inactive: 31%	–
Cc1ccc(OCC(O)Cn2c(=N)n(CCN3CCCCC3)c3ccccc32)cc1 (stereo not drawn)	inactive: 3.61%	–
COc1ccc(C2C(C(=O)c3ccco3)=C(O)C(=O)N2c2nnc(C)s2)cc1OC (stereo not drawn)	inactive: 11.7%	–
CCOC(=O)C1CCN(C(=O)c2ccc(C)c(S(=O)(=O)N3CCCC3)c2)CC1	inactive: 9.41%	–
COc1ccccc1/C=C/C=N/NC(=O)CN1CCN(S(=O)(=O)c2ccc(C)cc2)CC1	inactive: 17.1%	–
